Over roughly 33,000 sequences, “E-score (-0.5 to 0.5)” has its median near -0.056; the highest 2% begin near 0.38. Some of the results follow.
The sequences below were run against Stb4 (UniProt P50104) (assay: PBM E-score (8-mer binding enrichment) (E-score (-0.5 to 0.5)); higher = stronger / more preferred TF binding; most listed sequences are background and not binding sites). Conditions: protein concentration: 200 nM; construct: GST-DNA-binding domain.
Outline: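 Detection of bound protein used fluorescent anti-GST, with scans normalised by masliner. The proteins were GST-tagged yeast transcription factors applied at about 100-200 nM to universal all-10-mer Agilent arrays made double-stranded by primer extension. Each ungapped eight-base word, pooled with its reverse complement, was scored with an E-score from the Universal PBM Analysis Suite.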

Going from ATGGAGTC to GACCGATA, the “PBM E-score” value falls from 0.116 to 0.0851.

First: ATCTGCGA
Second: CCCGATCG
The “PBM E-score” value of the first is lower: -0.265 for the first, 0.363 for the second.

Compared with ACGCAACT, CTTGGATC is lower in “PBM E-score” value: -0.0227 for the first, -0.0751 for the second.

Going from CGGTGGAA to AGGGAAAG, the “PBM E-score” value falls from 0.06 to -0.198.

Compared with GAAGATAA, AACTTAAG is lower in “PBM E-score” value: 0.151 for the first, -0.117 for the second.

Going from CAAGTCAG to CACATTAG, the “PBM E-score” value falls from -0.185 to -0.195.

Compared with ATTGCTAA, CGGAACTA is higher in “PBM E-score” value: -0.204 for the first, 0.449 for the second.

First: GGATATCC
Second: AGACGACT
The “PBM E-score” value of the first is higher: 0.299 for the first, -0.0964 for the second.

First: GAATATCC
Second: AGGGAGGA
The “PBM E-score” value of the first is higher: 0.244 for the first, -0.265 for the second.

First: ACTGTGGA
Second: GATCCGCC
The “PBM E-score” value of the first is lower: -0.345 for the first, 0.273 for the second.

First: CGCCTGAC
Second: GTCGAGCA
The “PBM E-score” value of the first is higher: -0.0857 for the first, -0.295 for the second.

Compared with ATTCCCTG, GTAGCTAC is lower in “PBM E-score” value: 0.0358 for the first, -0.122 for the second.

Compared with AGCAGTAG, CCGCCTAG is higher in “PBM E-score” value: -0.261 for the first, 0.00339 for the second.

First: AATGGTCC
Second: AGACCAGA
The “PBM E-score” value of the first is higher: 0.165 for the first, -0.278 for the second.

First: AAGCGCAA
Second: CTGGGTCC
The “PBM E-score” value of the first is higher: 0.0625 for the first, -0.0588 for the second.

Going from CCATGTCC to GGCCGCAA, the “PBM E-score” value falls from 0.0121 to -0.0791.

Compared with CGAACGTA, AATGTCGT is lower in “PBM E-score” value: 0.0822 for the first, -0.0403 for the second.

Compared with ACGGACCC, GCGAACCC is lower in “PBM E-score” value: 0.0961 for the first, -0.00826 for the second.

First: AGAAAACT
Second: ACGTAAAT
The “PBM E-score” value of the first is lower: -0.226 for the first, -0.00272 for the second.

Compared with AGAGACAC, CGTTAGAA is higher in “PBM E-score” value: -0.157 for the first, -0.0347 for the second.

First: ACTTCCTA
Second: AGCGCGTC
The “PBM E-score” value of the first is higher: -0.113 for the first, -0.202 for the second.

Going from ACACTAAA to GCAGCACC, the “PBM E-score” value falls from -0.0159 to -0.0822.

Compared with CGGGTGCA, GTAACTAA is lower in “PBM E-score” value: 0.292 for the first, 0.0906 for the second.

First: CCCCTGCA
Second: GACATCAC
The “PBM E-score” value of the first is lower: -0.158 for the first, -0.0606 for the second.

First: CAGTGGGC
Second: CAATGGCC
The “PBM E-score” value of the first is lower: -0.26 for the first, -0.0728 for the second.

Compared with AATGACTC, AATGACAG is higher in “PBM E-score” value: -0.219 for the first, -0.215 for the second.

First: GACTTGCC
Second: ACAAGAGA
The “PBM E-score” value of the first is higher: -0.036 for the first, -0.0935 for the second.

First: ATACATTC
Second: CTAGGCAA
The “PBM E-score” value of the first is lower: -0.0959 for the first, -0.0033 for the second.

First: CATCACGA
Second: CTCTGTCC
The “PBM E-score” value of the first is lower: -0.285 for the first, -0.153 for the second.

Going from CATATTGA to AGCCCGGA, the “PBM E-score” value rises from -0.233 to 0.361.

Compared with CATTGGAG, CAAACGCA is lower in “PBM E-score” value: -0.153 for the first, -0.159 for the second.

Going from CGGTGCTA to CATCTAAC, the “PBM E-score” value falls from 0.103 to -0.0907.

Compared with ACCTACGT, CAACCCTG is lower in “PBM E-score” value: 0.036 for the first, -0.0278 for the second.

Compared with CTACGAAG, GGGACTTA is higher in “PBM E-score” value: -0.247 for the first, -0.0226 for the second.

First: CATGCACA
Second: GCGCATGA
The “PBM E-score” value of the first is higher: -0.169 for the first, -0.204 for the second.

First: ATCGCACA
Second: AACGTGGG
The “PBM E-score” value of the first is lower: -0.278 for the first, -0.177 for the second.

Going from CAATGTTC to AGCATCCG, the “PBM E-score” value rises from 0.0672 to 0.419.

Going from ATGCTCTG to CCTCTCGA, the “PBM E-score” value falls from -0.198 to -0.276.

First: ACGGCGCC
Second: GGATTGTA
The “PBM E-score” value of the first is lower: -0.0157 for the first, 0.11 for the second.

Going from CAACAAGC to ATATAGGC, the “PBM E-score” value rises from -0.117 to 0.0799.

Compared with ACCGAAAA, GGGGCTAA is lower in “PBM E-score” value: 0.337 for the first, -0.138 for the second.

Going from GGGTGCTA to AACCTTAA, the “PBM E-score” value rises from 0.0706 to 0.0731.

Going from AAAGTCTC to GCAATTGC, the “PBM E-score” value rises from -0.187 to 0.0399.

Compared with TGATTTAA, CCACGTGA is lower in “PBM E-score” value: 0.0668 for the first, -0.206 for the second.

Compared with ACAGCGAG, CCTGTATA is lower in “PBM E-score” value: -0.115 for the first, -0.136 for the second.

Compared with ACATTAAA, CCTATTTC is higher in “PBM E-score” value: -0.0486 for the first, -0.0481 for the second.

Going from CGTACTCC to GAGACGTA, the “PBM E-score” value falls from 0.1 to -0.098.

First: TCTGAGCA
Second: ACCCTATC
The “PBM E-score” value of the first is lower: -0.215 for the first, -0.0313 for the second.

Going from ATTTGGAG to CGACAGGA, the “PBM E-score” value rises from 0.0481 to 0.0828.

Going from AAGCTTAG to ACCGATCG, the “PBM E-score” value rises from -0.14 to 0.187.

Compared with AGTCATAT, GTCAGCCA is lower in “PBM E-score” value: -0.0966 for the first, -0.262 for the second.

Going from ACACTACC to AGTGCTAA, the “PBM E-score” value rises from 0.012 to 0.0406.

Going from TACCTCCA to GCGCGGTA, the “PBM E-score” value rises from -0.282 to 0.148.

Going from AGGGATTG to CCCCTACG, the “PBM E-score” value falls from -0.135 to -0.192.

Going from CCAGCTTC to CGCACTAC, the “PBM E-score” value falls from 0.00389 to -0.0218.

First: CAAGGATA
Second: ACCACTTG
The “PBM E-score” value of the first is higher: -0.0878 for the first, -0.124 for the second.

First: CACGGTAG
Second: GTCGTTAA
The “PBM E-score” value of the first is higher: -0.033 for the first, -0.0489 for the second.

Going from AGCCCCTC to CCCAAAAC, the “PBM E-score” value falls from -0.029 to -0.137.

First: CATTATGA
Second: CACTAGTG
The “PBM E-score” value of the first is higher: -0.136 for the first, -0.167 for the second.

Going from AGACGGGG to CTGAATAA, the “PBM E-score” value falls from 0.101 to -0.0285.

Compared with TAATTATA, GGCGAAGA is lower in “PBM E-score” value: 0.124 for the first, -0.0368 for the second.

First: GAGTATGA
Second: ACTATTGA
The “PBM E-score” value of the first is higher: 0.125 for the first, -0.145 for the second.

Compared with TCCGATAA, AGTGGATA is lower in “PBM E-score” value: 0.366 for the first, 0.044 for the second.

First: GACGGATA
Second: ATCGCTTA
The “PBM E-score” value of the first is higher: 0.385 for the first, -0.262 for the second.

First: TGCACTAA
Second: CGGGGGAG
The “PBM E-score” value of the first is lower: -0.112 for the first, 0.113 for the second.

Compared with AGATTCGG, AGCACATC is lower in “PBM E-score” value: 0.378 for the first, 0.0597 for the second.

First: CGAAATAG
Second: CTCGAAGC
The “PBM E-score” value of the first is higher: 0.0973 for the first, -0.132 for the second.

Compared with ACAAGACC, AAGTAGAA is lower in “PBM E-score” value: 0.073 for the first, -0.165 for the second.

First: ACCAGGAG
Second: TCTGCGCA
The “PBM E-score” value of the first is lower: -0.119 for the first, -0.089 for the second.

First: CTCATAAG
Second: AGAGGTAC
The “PBM E-score” value of the first is lower: -0.202 for the first, -0.0427 for the second.

Going from CATCCCCC to CGTCCGAC, the “PBM E-score” value rises from -0.102 to 0.147.

Compared with GACGAAGC, GGAACGAC is higher in “PBM E-score” value: -0.142 for the first, 0.0694 for the second.

First: CTAATAGA
Second: GCCGCGAA
The “PBM E-score” value of the first is higher: 0.113 for the first, 0.0415 for the second.

Going from ATATAGTA to ACTTGAGC, the “PBM E-score” value falls from -0.208 to -0.258.

First: GATTTTAC
Second: ACATGAGT
The “PBM E-score” value of the first is higher: 0.0329 for the first, -0.134 for the second.

First: CCTATATC
Second: AATTCCTC
The “PBM E-score” value of the first is lower: -0.0301 for the first, 0.0334 for the second.

First: GTCGTGGA
Second: ACCAAGGA
The “PBM E-score” value of the first is lower: -0.135 for the first, 0.00373 for the second.

First: ATCGGGGC
Second: ACTCTCCC
The “PBM E-score” value of the first is higher: 0.147 for the first, 0.129 for the second.

Compared with AATAGACT, ATAACCCC is higher in “PBM E-score” value: -0.242 for the first, 0.0131 for the second.

Compared with CCGTGTAC, CAGTACTA is lower in “PBM E-score” value: 0.119 for the first, -0.186 for the second.

Compared with CTTCCATC, ATCAGTTG is lower in “PBM E-score” value: 0.0979 for the first, -0.275 for the second.

First: GATCTTGC
Second: CGACCAGA
The “PBM E-score” value of the first is higher: 0.0905 for the first, -0.00112 for the second.

First: ATCGCACG
Second: GAGCGATC
The “PBM E-score” value of the first is lower: -0.22 for the first, -0.0677 for the second.

First: TCGGCAAA
Second: AAGCGCGA
The “PBM E-score” value of the first is higher: 0.41 for the first, -0.072 for the second.

First: GACATAGC
Second: AGGAGACT
The “PBM E-score” value of the first is higher: -0.0829 for the first, -0.284 for the second.

Compared with AACGTTGG, CACGCTCA is lower in “PBM E-score” value: 0.00161 for the first, -0.138 for the second.
